# From the antibiotic and cytotoxicity screens of Wong et al. (2023)
# The other results are listed elsewhere or left out.
# How the values were obtained:
# HSkMC = human skeletal muscle cells; assay: cytotoxicity call (relative viability < 0.9); settings: 10 µM
# HepG2 = assay: cytotoxicity call (relative viability < 0.9); settings: 10 µM
# S. aureus RN4220 = assay: growth inhibition call (relative growth <= 0.2); settings: 50 µM
Compound,cytotoxicity call (HSkMC),cytotoxicity call (HepG2),growth inhibition call (S. aureus RN4220)
C[C@@H]1CCCCO[C@H](CN(C)Cc2ccncc2)[C@H](C)CN([C@H](C)CO)C(=O)c2cc(NC(=O)CCC(F)(F)F)ccc2O1,inactive,inactive,inactive
Cc1noc(C)c1NC(=O)N(C)C[C@@H]1OCCCC[C@H](C)Oc2ccc(NC(=O)NC3CCCCC3)cc2C(=O)N([C@H](C)CO)C[C@H]1C,inactive,inactive,inactive
C[C@H](CO)N1C[C@H](C)[C@@H](CN(C)Cc2ccc(Oc3ccccc3)cc2)Oc2ccc(NC(=O)Cc3cn(C)c4ccccc34)cc2C1=O,inactive,active,inactive
N#CNC1=NCN(CCN2CCOCC2)CN1,inactive,inactive,inactive
COc1cccc(S(=O)(=O)N(C)C[C@@H]2OCc3cn(nn3)CCCC(=O)N([C@H](C)CO)C[C@@H]2C)c1,inactive,inactive,inactive
C[C@@H]1CN([C@H](C)CO)C(=O)CCCn2nncc2CO[C@@H]1CN(C)S(=O)(=O)c1ccc(Oc2ccccc2)nc1,inactive,inactive,inactive
C[C@H]1CN([C@@H](C)CO)C(=O)c2cc(NC(=O)C3CC3)ccc2O[C@@H]1CN(C)S(=O)(=O)c1cccs1,inactive,inactive,inactive
C[C@@H]1CN([C@H](C)CO)S(=O)(=O)c2ccc(C#Cc3ccccc3F)cc2O[C@@H]1CN(C)C(=O)Cc1ccncc1,inactive,inactive,inactive
CC(=O)OC1CC2(C)C(CC(O)C3C4(C)CCC(O)C(C)C4CCC32C)C1=C(CCC=C(C)C)C(=O)O (stereo not given),inactive,inactive,active
CC(C)NC(=O)N(C)C[C@H]1Oc2c(NC(=O)NC3CCCCC3)cccc2C(=O)N([C@@H](C)CO)C[C@H]1C,inactive,inactive,inactive
